Source: ChEMBL document CHEMBL4888484, “Replenishing the malaria drug discovery pipeline: Screening and hit evaluation of the MMV Hit Generation Library 1 (HGL1) against asexual blood stage Plasmodium falciparum ,using a nano luciferase reporter read-out” (2022)
Among all 150,000 compounds or so, about 540 (0.36%) showed an effect of 50% or more. The list shows a part of the results.

Each molecule was assayed on Plasmodium falciparum (assay: Primary screen in NF54 nanoGlo assay, in single point, at 2uM, 72h; a lower Z score goes with more inhibition). Conditions: timepoint 72 hour.
Assay type: functional, Erythrocyte

SMILES | % Inhibition [%] | Z score
CC(C)c1nc(CNC(=O)c2ccc(N[C@@H](C)Cn3cncn3)nc2)no1 | 4 | -0.65
CC(C)(C)OC(=O)N1CCC[C@@H]1CCC(=O)NCCOc1cccc(F)c1 | -3 | 0.42
Cc1cc(=O)[nH]cc1C(=O)Nc1ccc(N2CCOC[C@@H]2C)cc1 | 8 | -0.76
CCC1(CC)Oc2ccc(N[C@@H](C)c3cncc(F)c3)cc2O1 | -12 | 1.92
C[C@@H](Cc1ccc(OC(F)(F)F)cc1)C(=O)NCc1cnn(C)n1 | 4 | -0.51
CC(C)(C)OC(=O)NC1CCCCCCC1C(=O)O (centres undefined) | 1 | -0.06
COc1ccc([C@@H](C)NC(=O)N(CCO)Cc2nccn2C)cc1 | -13 | 1.17
Cc1cc(C(=O)N2CCOC[C@H](Oc3ccc(S(C)(=O)=O)cc3)C2)no1 | 11 | -1.33
CCCCC(=O)Nc1ccc(Br)cn1 | -6 | 0.77
Cc1ccc(N2CN(CC(=O)Nc3ccc(C)c(F)c3)S(=O)(=O)c3cccnc32)cc1 | -23 | 2.48
CC[C@H](C(=O)NCc1ccc(O)c(OC)c1)C1(O)CCCCC1 | -12 | 1.23
CC(=O)N[C@@H]1C[C@H](CC(C)C)O[C@H](c2c(C)n(C)n(-c3ccccc3)c2=O)C1 | -2 | 0.33
OC1CCN(CCCNc2ncnc3c2Cc2ccccc2OC3)CC1 | 10 | -1.34
O=C(C1CC1)[C@@H]1CN(C(=O)Cc2cccc(Br)c2)CCO1 | -4 | 0.49
C[C@@]1(C(=O)NC2CCCCCC2)Cn2c(ccc2-c2ccco2)C(=O)N1Cc1cccc(Cl)c1 | -19 | 1.83
COC(=O)C1(NC(=O)Nc2cccc(Oc3c(F)c(F)c(F)c(F)c3F)c2)CCCCC1 | 3 | -0.43
CC(C)c1cc(C(=O)N(C)Cc2ccc(-n3cccn3)cc2)[nH]n1 | -1 | 0.24
C[C@@H](C(=O)N(CCC#N)c1ccccc1)n1cc(-c2cnn(C)c2)nn1 | -1 | 0.12
FC(F)(F)c1cccc([C@H]2CCN(Cc3nnc(C4CC4)o3)C2)c1 | 3 | -0.28
Cc1ccccc1[C@H](CNC(=O)N1CC(c2ccccn2)C1)N1CCC(C)CC1 | -13 | 1.19
O=C(Nc1ccc(F)cc1F)N1C[C@@H](F)[C@@H](OCc2nc3ccccc3o2)C1 | -3 | 0.42

SMILES | % Inhibition [%] | Z score
O=C(CCC1CCCC1)N1CC(N(Cc2cccnc2)C(=O)Nc2ccccc2)C1 | -3 | 0.51
CCN(CC)c1nc(Nc2ccccc2C)nc(Nc2cc(C)ccc2C)n1 | -21 | 2.23
CCCCN(C)C(=O)C1CCN(c2nnc(-c3ccc(OC)cc3)o2)CC1 | -8 | 1.19
CN1CCNC(=O)C12CCN(c1cnc3ccccc3n1)CC2 | 3 | -0.45
Cc1cc(NC(=O)C(=O)N2CCc3c(F)cc(F)cc32)nn1C | -12 | 1.54
Cc1nn(C)c(C)c1S(=O)(=O)N1CCC[C@@]2(C1)C(=O)Nc1ccccc12 | 9 | -1.65
O=S1(=O)CCCN1CCn1nccc1-c1ccc(F)c(Cl)c1 | -14 | 2.18
O=C(NCCCCN1C(=O)c2ccccc2C1=O)c1cccnc1 | -15 | 2.65
CN(C(=O)c1cnn(-c2ccccc2)c1)C1C2CCOC2C1(C)C (centres undefined) | -3 | 0.55
CCN1C[C@@H](c2ccccc2)CC2(CCN(S(=O)(=O)N(C)C)CC2)C1 | -1 | 0.15
COc1ccc(-c2nn3ccn(CC(=O)NC4CCCCC4)c(=O)c3c2CO)cc1 | -11 | 1.29
COC(=O)c1ccc(CC(=O)NC[C@H]2CCCOC2)cc1 | 2 | -0.37
CCNC(=O)c1ccc(COc2ccc3c(c2)[C@H](c2cccc(F)c2)N(C(=O)C(C)C)CC3)o1 | -5 | 0.5
CC(C)=CCC[C@@]1(C)CCC(=O)N(CCc2nc3ccccc3c(=O)[nH]2)C1 | 6 | -0.83
COc1ccccc1-c1c(C#N)c(N)nc2c1COC2C (centres undefined) | 4 | -0.78
CO[C@@H](CNC(=O)c1cn2c(n1)CNCC2)c1cccs1 | -9 | 1.4
O[C@H]1[C@H](NCc2ccccn2)[C@H]2CO[C@H](O2)[C@@H]1N1CCC(Cc2ccccc2)CC1 | -1 | 0.11
Cc1ocnc1CNC(=O)N1CC(F)C1 | -16 | 1.7
Cc1ccccc1CNc1ccnn1C(C)C | -14 | 1.97
Cc1nc([C@@H]2CCCN2c2cnccn2)cs1 | -5 | 0.58
CN(C)c1nc(N)nc(CN2CC(O)(c3ccc(Cl)cc3)C2)n1 | 8 | -1.67
